The other results are listed elsewhere or left out.
T1: UNK ZnF1-3 (human, UniProt Q9C0B0 31-174)
T1 sequence: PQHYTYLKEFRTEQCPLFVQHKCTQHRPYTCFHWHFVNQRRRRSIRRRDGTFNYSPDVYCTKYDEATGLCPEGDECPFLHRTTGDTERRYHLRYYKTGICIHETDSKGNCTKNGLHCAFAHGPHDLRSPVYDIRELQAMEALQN

B1: chr2:232597714:232597715:-_ENSG00000156973_ENST00000287600|hu_mus|motif|central (ssRNA)
RNA: GGGAGUUCUACAGUCCGACGAUCGAAAAGCCUCACUUUGGAUGUGCUGACAAGAAGAUCAUCGUCAAAGAACUUUGUCUCGGUGAUGACAUUGCCCGUUAGGACGCUGGCGGGCAUCAUCUGGGACUCAGGCGCUGCUUCUAUCAACAGAGGAUUGAGCAUCA
B2: chr1:58468927:58468928:-_ENSMUSG00000026034_ENSMUST00000148330|mus_mus|mus_mus_mus_hu_False|8_8 (ssRNA)
RNA: GGGAGUUCUACAGUCCGACGAUCAAUUACUGAAAAAGAUGUUCAUUACCUUAGCUAUGUACUUAAUGAACCAAAUUACCCAAACAAAAUAAACAUGGCAAUAUAAAAAUGUUAAGAAUUUACAAAGAUUAAAAGCUUAACUUACAACAGAGGAUUGAGCAUCA
B3: chr11:46405157:46405158:+_ENSG00000110492_ENST00000395566|hu_hu|hu_hu_hu_mus_False|1_48 (ssRNA)
RNA: GGGAGUUCUACAGUCCGACGAUCCCCUCCCCACUUUGGGCACUUGGUGUGGGCGUGAGAGGACAGGCGUGAUUGACAGAGCUGACAAGCAGACAGAAGGCACUGGUGGGUUAUAUCUUGGGCCUGUGGGAGAGGAGGCGUGGGCAACAGAGGAUUGAGCAUCA
B4: chr22:32879901:32879902:+_ENSG00000100225_ENST00000397426|hu_mus|hu_hu_hu_mus_False|18_108 (ssRNA)
RNA: GGGAGUUCUACAGUCCGACGAUCCUCUGCCAUAUGCAUGGCAUCCUGAAUUGACUCAGCUUCAACAUUUUGACUAGGCCCUUCCAUACUGUCAUCAGUCCAGGCAUCAAAUGGGGUUGCCUGUCCUUGGGAUGAAUCAGUCCCCAACAGAGGAUUGAGCAUCA
B5: chr6:142515020:142515021:-_ENSMUSG00000030247_ENSMUST00000032374|mus_hu|FALSE|FALSE (ssRNA)
RNA: GGGAGUUCUACAGUCCGACGAUCCCCUCCAAACCCAAUGGUAACUUGAACUUCAAUGGAGAAGAGAAAAGCAGAAGUGAAAGACCUGACAUUAGUCACACACACAGUGGACUCCAAACCACUUUUCUCCAUUCCACUUUUCUCCAACAGAGGAUUGAGCAUCA
B6: chr7:141438946:141438947:+_ENSG00000106028_ENST00000265304|hu_mus|hu_hu_hu_mus_True|1_28 (ssRNA)
RNA: GGGAGUUCUACAGUCCGACGAUCGACGAAAUACCUGUAACACAGGUCUUCGAAACAUGGCUUCUGUUUUUCUUACAACCUAAUCUUUAGGCUUUUCCUAAAGGAAAAACCCGAGCAAGAAAAAUGAUAAAUCAAGAACUUCCGCAACAGAGGAUUGAGCAUCA
B7: chr1:135197953:135197954:+_ENSMUSG00000041757_ENSMUST00000038295|mus_mus|motif|central (ssRNA)
RNA: GGGAGUUCUACAGUCCGACGAUCGAGCUGAUCCCAUCUACCAGUCUUUAAGGAGGAAGGGGCAGAUUUGGGGUGCUUGAACGGUGCAGAUAGGGGAUGUCAUGAAGGAGCACUUUCCAGAAGCCAGAGAGAGGCAAAAACAGGCAACAGAGGAUUGAGCAUCA
B8: chr12:66249844:66249845:-_ENSMUSG00000047534_ENSMUST00000052201|mus_hu|FALSE|FALSE (ssRNA)
RNA: GGGAGUUCUACAGUCCGACGAUCGGGAUGCCUAUUUGUCUUAUCAGAUCCUACUGCCUCAGUAAUUGGAAACUCUUUCCUAACACCAGACUUCUGAAGAGUUUCUUUGACGGAAGGUCUAGCUUUCUUUUGUUUGAUAUAAAACAACAGAGGAUUGAGCAUCA
B9: chr11:46405157:46405158:+_ENSG00000110492_ENST00000395566|hu_hu|hu_hu_hu_mus_False|1_68 (ssRNA)
RNA: GGGAGUUCUACAGUCCGACGAUCCCCUCCCCACUUUGGGCACUUGGUGUGGGCGUGAGAGGACAGGAUGAUUGAUUAGAGCUGACAGGAAGACAAAAGGCACUGGUGGGUUAUAUCUUGGGCCUGUGGGAGAGGAGGCGUGGGCAACAGAGGAUUGAGCAUCA
B10: chr4:76721835:76721836:+_ENSG00000138768_ENST00000264904|hu_mus|hu_hu_hu_mus_True|1_48 (ssRNA)
RNA: GGGAGUUCUACAGUCCGACGAUCGUUUGGCUGGGGUUUCUGAGACGCUCUGGAAUAUAACUCAUGUUUGCUAAUAAAUCCUAGUUUUCUAUGAAAUUUCUCUUUGCCAAUCCUCUUCUCUAUUAGUUGCUUUAGUUCUCUUUCCAACAGAGGAUUGAGCAUCA
B11: chr2:48026839:48026840:+_ENSG00000116062_ENST00000540021|hu_hu|hu_hu_hu_mus_False|8_68 (ssRNA)
RNA: GGGAGUUCUACAGUCCGACGAUCAUAGUGAGCCACUAGCGUCCUAAAUCUGGAACAGUGGCGGUCAUCUGAAAACUGGCCGAUGAAAAACUUGCCCAGUGAAGUGUCCACAAAGCAAACACCAUACGCACGAGUAUGACCAGACAACAGAGGAUUGAGCAUCA
B12: chr5:139724684:139724685:+_ENSMUSG00000036817_ENSMUST00000110883|mus_mus|motif|central (ssRNA)
RNA: GGGAGUUCUACAGUCCGACGAUCGCCUGGAAACCUGCCAGCCUAUCUGCUUCUUGACUUUAUGCAUUCAAGCAAAUCCCGGAGUCAAAAGGAGUGUCCGAGAAUCAUACAUUCAAAUGAAUUAAAAAAGCCUCCCCGGCUUUUCAACAGAGGAUUGAGCAUCA
B13: chr5:21408736:21408737:-_ENSMUSG00000042453_ENSMUST00000161356|mus_hu|mus_mus_mus_hu_False|28_48 (ssRNA)
RNA: GGGAGUUCUACAGUCCGACGAUCGUUGACAGAGUUGUAGAUGGUGGCUUCAUGGAACUGGAAAGGGGAGCAGCCAAUGCUGUUAGAAGAGGAAGGUAGGCACUGGGUCUGCACGAGCUGCCAGGAAUCCGAUCUUGCAUCCUUCAACAGAGGAUUGAGCAUCA
B14: chr11:10819154:10819155:-_ENSG00000110321_ENST00000525681|hu_mus|FALSE|FALSE (ssRNA)
RNA: GGGAGUUCUACAGUCCGACGAUCCUUAGGAUGUAAUUAUUGCAUGCUGCUAAUAUUCUAUCUAAACAUUAAGGAUACUCCUAAAGUAUUUGAUGGUAGACUAUGAUUAAGACAUCACACUACAAAAACCUUAUGCAGAAGGAACAACAGAGGAUUGAGCAUCA
B15: chr2:42509997:42509998:+_ENSG00000143924_ENST00000318522|hu_mus|hu_hu_hu_mus_True|68_88 (ssRNA)
RNA: GGGAGUUCUACAGUCCGACGAUCUCGCUGAGUCCUCUCCUCAUAAUUAAAUAGUACUACCACUGAGGCAAUGAAAUAAACUAUCUCCCCUGUGGGAAGCAGGUAUACAUUCGCUCUACAGUCCUUUCCUCGAUAACCGUAUACCAACAGAGGAUUGAGCAUCA
B16: chr14:53325254:53325255:-_ENSG00000073712_ENST00000341590|hu_mus|FALSE|FALSE (ssRNA)
RNA: GGGAGUUCUACAGUCCGACGAUCGACCACCUUGCAGUCUACUUCGGUACAGAUGAAGGACAACCGGACCUCAUCUGCAAACUCUACAGUGACCAUCUUGAUCUCCCAGUUGACAUUCCACUGCUUCAUGUUGCUGAACCGCCACAACAGAGGAUUGAGCAUCA
B17: chr14:76904430:76904431:+_ENSMUSG00000022010_ENSMUST00000022587|mus_mus|mus_mus_mus_hu_True|38_108 (ssRNA)
RNA: GGGAGUUCUACAGUCCGACGAUCUGCUGGAAAAAAAACCCUCGUGGAAAAAAAGAGGGAACACCAGCAGCCUUGUAUAAGCUAGAUAAAAUCUUCUAGCUGUCUGCAGCCCAGGGAGAAACAGAAAACGGCAGCCCUAAUUUACAACAGAGGAUUGAGCAUCA
B18: chr2:219460011:219460012:+_ENSG00000144580_ENST00000542068|hu_mus|FALSE|FALSE (ssRNA)
RNA: GGGAGUUCUACAGUCCGACGAUCAAACUCAUUCAGCUGCUUCUACAAUCAUGAGGAGAUGGCACUAUGAAAACUCACGCUAGAGAACGGGGUCAAGUAGUCUACCAUUUGGAUCCAGGCGCUUACUCCGUUUGAGAAGACACCCAACAGAGGAUUGAGCAUCA
B19: chr10:61154552:61154553:+_ENSMUSG00000020088_ENSMUST00000020285|mus_mus|FALSE|FALSE (ssRNA)
RNA: GGGAGUUCUACAGUCCGACGAUCCAGAGCCCAAUGCGCUAUCUGUUCAUAAUUUUAUGAAGUAUGUAAAUUUCAUUUACUAGUUAAAAAAAAAGAAUAGAAAAUCUGGACCAAGUAAAUUGUGAACUGAAAAAGUUAGAGAAGCAACAGAGGAUUGAGCAUCA
B20: chr9:95013113:95013114:-_ENSG00000196305_ENST00000443024|hu_hu|hu_hu_hu_mus_False|8_58 (ssRNA)
RNA: GGGAGUUCUACAGUCCGACGAUCCUCAGUCAGAAAGGGCGUGUAAGGGGCCAUCAGUCUGCACAGAGAAAGCAGGACACUAAACAAUGUCUCCAGAGCCAUGACACAGUCUUCCACCCCACUCUCACCCUUUAAUCUCCUCCUCAACAGAGGAUUGAGCAUCA
B21: chr1:165664616:165664617:-_ENSG00000143149_ENST00000354775|hu_hu|FALSE|FALSE (ssRNA)
RNA: GGGAGUUCUACAGUCCGACGAUCCUUUGCAUUUUGAACAGCCAAAUUUACUUCCUUUUCUCCUGAACAUGUGAAAGUAGCUAUCACUCGGCCGGUUGCUGGCUCGAAAGCUUUCUCGGUACCGGAGGCGUCCGCCGGCUCCACCAACAGAGGAUUGAGCAUCA
B22: chr6:99849430:99849431:-_ENSG00000132424_ENST00000438806|hu_mus|FALSE|FALSE (ssRNA)
RNA: GGGAGUUCUACAGUCCGACGAUCUCUUUUCUUGUCAUUGACCGCAUCACGGUCGGCUUCACUUGCUUCUAGAAGUGAUAAACUAUUUUGCUCUCUGUGAAUAAAUUCAUUCAUCUCUUUUGUAACCCUUUCUGUUUGCUGCUUCAACAGAGGAUUGAGCAUCA

target: T1, UNK ZnF1-3; experiment: nsRBNS (natural sequence RNA bind-n-seq); RBNS binding buffer (assumed for nsRBNS): 25 mM Tris pH 7.5, 150 mM KCl, 3 mM MgCl2, 0.01% Triton X-100, 500 ug/ml BSA, 20 U/ml SUPERase-In, 4 C; UNK is unkempt and MSI1 is Musashi-1; names of the RNAs are library labels; protein concentration not given here; high values mean tight binding

Binder	binding signal
B1	0.985 enrichment R
B2	1.17 enrichment R
B3	3.02 enrichment R
B4	0.786 enrichment R
B5	0.882 enrichment R
B6	0.657 enrichment R
B7	2.39 enrichment R
B8	0.732 enrichment R
B9	2.17 enrichment R
B10	0.561 enrichment R
B11	1.08 enrichment R
B12	1.18 enrichment R
B13	1.63 enrichment R
B14	0.935 enrichment R
B15	1.34 enrichment R
B16	0.822 enrichment R
B17	2.82 enrichment R
B18	1.31 enrichment R
B19	1.7 enrichment R
B20	1.43 enrichment R
B21	0.853 enrichment R
B22	0.452 enrichment R

Reference: PMC12136788
